This note sets out measurements from the supplement of paper PMC11369174, “Proteome-scale characterisation of motif-based interactome rewiring by disease mutations” (Molecular Systems Biology, 2024).

Some of the results follow. Single values of this set are uncertain.

The target of one assay is T1, CSK21_Pkinase__P68400_1_335.
T1 chain: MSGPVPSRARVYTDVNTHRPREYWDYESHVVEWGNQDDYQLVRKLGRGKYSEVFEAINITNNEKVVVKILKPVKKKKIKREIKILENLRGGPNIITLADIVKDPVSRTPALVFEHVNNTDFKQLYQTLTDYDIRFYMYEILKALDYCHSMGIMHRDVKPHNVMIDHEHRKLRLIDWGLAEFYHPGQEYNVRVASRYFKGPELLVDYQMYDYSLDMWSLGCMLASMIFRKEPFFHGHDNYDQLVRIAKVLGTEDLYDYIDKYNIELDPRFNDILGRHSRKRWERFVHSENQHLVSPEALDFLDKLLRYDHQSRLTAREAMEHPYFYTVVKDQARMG
Briefly: mutation enrichment score (mutant vs wild-type peptide binding to bait); baits are purified protein domains named by gene / domain / UniProt id / residues; peptides come from disordered regions of human proteins; higher = mutation enhances binding relative to wild type. As to conditions: number of wild-type / mutant comparisons summed (bounds the score): 6; paper call: no_effect; wild-type window: ….
Regarding TLGSMLAVTFLLQALVLLGLWYLQTALEGLGGVIDAGGETQ [R287W R287W], the mutation enrichment score was determined as 2.
On the same count and under the same terms, as for PEDDRPEAIPELHMVPAAWRVLEMPAPADDSSSSLGDVSPE [G2971V G2971V], the figure is 2.
The same measure, in the same setting: in the case of IAPRRGHDNTGVTDRVVNQLPTQLDGVEGLQGVYVLAATSR [L965P L965P] it was -3; in that of PLQQQQVLSILHANPQLLAAVIKQRAAKYANSNPQPIPGQP [F2084V F2084V], -4.

Another assay deals with T2, EPHB2_Pkinase__P29323_604_898.
T2 chain: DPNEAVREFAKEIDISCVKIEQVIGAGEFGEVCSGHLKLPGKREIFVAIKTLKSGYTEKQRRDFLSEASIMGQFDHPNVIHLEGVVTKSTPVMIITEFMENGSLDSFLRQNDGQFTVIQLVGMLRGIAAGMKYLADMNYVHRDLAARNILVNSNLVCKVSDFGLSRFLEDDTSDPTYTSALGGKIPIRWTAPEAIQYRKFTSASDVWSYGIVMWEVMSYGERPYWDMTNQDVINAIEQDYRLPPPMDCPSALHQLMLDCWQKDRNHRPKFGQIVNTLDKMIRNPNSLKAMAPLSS
The assay is described as above. As to conditions: number of wild-type / mutant comparisons summed (bounds the score): 6; paper call: no_effect; wild-type window: ….
As for TLGSMLAVTFLLQALVLLGLWYLQTALEGLGGVIDAGGETQ [R287W R287W], the mutation enrichment score turned out to be 3.
Still for that read-out and setting: in the case of PLQQQQVLSILHANPQLLAAVIKQRAAKYANSNPQPIPGQP [F2084V F2084V] it was -3.

Another assay addresses T3, CSKP_Pkinase__O14936_1_340.
T3 chain: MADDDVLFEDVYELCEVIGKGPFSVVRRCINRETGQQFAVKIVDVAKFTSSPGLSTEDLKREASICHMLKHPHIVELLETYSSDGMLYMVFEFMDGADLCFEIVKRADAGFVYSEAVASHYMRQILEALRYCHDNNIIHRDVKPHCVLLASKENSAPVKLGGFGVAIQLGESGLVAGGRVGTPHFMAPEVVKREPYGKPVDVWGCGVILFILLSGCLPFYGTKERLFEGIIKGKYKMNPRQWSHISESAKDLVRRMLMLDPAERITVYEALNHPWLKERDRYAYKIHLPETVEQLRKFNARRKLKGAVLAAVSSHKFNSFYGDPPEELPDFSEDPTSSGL
The description is as above. As to conditions: number of wild-type / mutant comparisons summed (bounds the score): 6; paper call: enhanced; wild-type window: ….
As to WAAFHPTMPLIVSGADDRQVNIWRMNESKAWEVDTCRGHYN [K230N K230N], the mutation enrichment score was 6.
Still for that read-out and setting: as for AVPKYYQSPWEQAISNDPELSEALYPKLFKPEGKAELPDYR [L163S L163S], the figure is 6.

The next assay deals with T4, CLTC_Clathrin-propeller__Q00610_1_364.
T4 chain: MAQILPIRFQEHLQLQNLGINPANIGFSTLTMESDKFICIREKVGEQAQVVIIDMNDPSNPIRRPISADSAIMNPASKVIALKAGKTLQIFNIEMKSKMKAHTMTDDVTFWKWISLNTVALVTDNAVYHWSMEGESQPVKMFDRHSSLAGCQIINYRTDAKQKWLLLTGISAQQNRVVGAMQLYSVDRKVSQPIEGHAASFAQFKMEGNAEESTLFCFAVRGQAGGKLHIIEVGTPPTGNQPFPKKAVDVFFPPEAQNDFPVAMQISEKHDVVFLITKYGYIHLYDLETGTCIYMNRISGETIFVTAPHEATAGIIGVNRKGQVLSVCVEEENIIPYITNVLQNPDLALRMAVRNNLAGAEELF
Described as above. As to conditions: number of wild-type / mutant comparisons summed (bounds the score): 12; paper call: no_effect; wild-type window: ….
LEGLPPSWYKVFDPSCGLPYCWNADTDLVSWLSPHDPNSVV [Y65C Y65C]: the mutation enrichment score was found to be 0.94.

For the next assay, the target named is T5, GGA1_VHS__Q9UJY5_1_157.
T5 chain: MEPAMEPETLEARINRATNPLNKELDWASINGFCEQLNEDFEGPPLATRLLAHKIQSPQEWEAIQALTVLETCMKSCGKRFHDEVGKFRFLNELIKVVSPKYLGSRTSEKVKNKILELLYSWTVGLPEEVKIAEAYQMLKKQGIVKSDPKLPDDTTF
The assay is described as above. As to conditions: number of wild-type / mutant comparisons summed (bounds the score): 10; paper call: no_effect; wild-type window: ….
As for LEGLPPSWYKVFDPSCGLPYCWNADTDLVSWLSPHDPNSVV [Y65C Y65C], the mutation enrichment score came to 2.3.

The next assay addresses T6, GGA3_VHS__Q9NZ52_1_166.
T6 chain: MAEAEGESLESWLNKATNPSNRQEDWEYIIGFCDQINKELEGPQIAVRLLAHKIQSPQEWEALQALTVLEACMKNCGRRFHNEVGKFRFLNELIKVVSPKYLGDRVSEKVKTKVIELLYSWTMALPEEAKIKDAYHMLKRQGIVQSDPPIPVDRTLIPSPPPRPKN
The description is as above. As to conditions: number of wild-type / mutant comparisons summed (bounds the score): 6; paper call: no_effect; wild-type window: ….
As to LEGLPPSWYKVFDPSCGLPYCWNADTDLVSWLSPHDPNSVV [Y65C Y65C], the mutation enrichment score was -5.

For the next assay, the target named is T7, PDZK1_PDZ_2_Q5T2W1_132_224.
T7 chain: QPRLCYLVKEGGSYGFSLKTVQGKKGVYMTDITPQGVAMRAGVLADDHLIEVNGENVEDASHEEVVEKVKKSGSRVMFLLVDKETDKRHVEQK
The assay is described as above. As to conditions: number of wild-type / mutant comparisons summed (bounds the score): 6; paper call: no_effect; wild-type window: ….
In the case of LEGLPPSWYKVFDPSCGLPYCWNADTDLVSWLSPHDPNSVV [Y65C Y65C], the mutation enrichment score was -6.

The next assay concerns the target T8, RDX_FERM_1_P35241_5_295.
T8 chain: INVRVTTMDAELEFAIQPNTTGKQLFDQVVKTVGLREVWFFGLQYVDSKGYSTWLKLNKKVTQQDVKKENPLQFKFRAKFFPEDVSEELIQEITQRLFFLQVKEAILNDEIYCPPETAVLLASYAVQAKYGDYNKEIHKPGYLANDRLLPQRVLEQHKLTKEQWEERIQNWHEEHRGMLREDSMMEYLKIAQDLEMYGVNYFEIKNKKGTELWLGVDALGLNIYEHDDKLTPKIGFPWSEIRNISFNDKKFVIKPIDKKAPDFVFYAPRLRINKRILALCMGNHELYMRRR
Described as above. As to conditions: number of wild-type / mutant comparisons summed (bounds the score): 6; paper call: no_effect; wild-type window: ….
Turning to LEGLPPSWYKVFDPSCGLPYCWNADTDLVSWLSPHDPNSVV [Y65C Y65C], the mutation enrichment score is 2.

The target of the next assay is CREBBP_NCBD__Q92793_2062_2109. Described as above. As to conditions: number of wild-type / mutant comparisons summed (bounds the score): 5; paper call: no_effect; wild-type window: ….
Turning to IIPPPPPICPDSLDDADALGGMLISWYMSGYHTGYYMGFRQ [S262G S262G], the mutation enrichment score is -3.
In the case of IIPPPPPICPDSLDDADALGIMLISWYMSGYHTGYYMGFRQ [S262I S262I], the mutation enrichment score is -3.
In the case of YEDALYTVLHRLGHPEPNHVMEASELLRYLQEAFHVEPEEH [T76M T76M], the mutation enrichment score was 4.8.

The next assay addresses T9, PEX14_Pex14__O75381_16_84.
T9 chain: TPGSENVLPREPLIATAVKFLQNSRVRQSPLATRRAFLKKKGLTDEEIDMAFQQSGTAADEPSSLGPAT
The assay is described as above. As to conditions: number of wild-type / mutant comparisons summed (bounds the score): 6; paper call: no_effect; wild-type window: ….
In the case of IIPPPPPICPDSLDDADALGGMLISWYMSGYHTGYYMGFRQ [S262G S262G], the mutation enrichment score was -2.3.

In the next assay the target is T3, CSKP_Pkinase__O14936_1_340. The assay is described as above. As to conditions: number of wild-type / mutant comparisons summed (bounds the score): 6; paper call: no_effect; wild-type window: ….
Consider LDPYEQWSDQEIWKVADEVGPRSVIEQFPGKLDFVLVDGGC [L1324P L1324P], for which the mutation enrichment score is -3.5.
Still for that read-out and setting: as for FYCDEEENFYQQQQQSELQPLAPSEDIWKKFELLPTPPLSP [P43L P43L], the figure is 2; as for YRKHCLEQGKQQLMPQEAGLVEEFLLTDNSAIWQTVEELDY [A676V A676V], 4.
The same measure, in the same setting: as for VTIWAAGAGATHSPPTDLVWEAQNTWGCGNSLRTALINSTG [K515E K515E], the figure is -1; as for PPAPSEDIWKKFELLPTPPLFPSRRSGLCSPSYVAVTPFSL [S62F S62F], -1.7.
For TWNPPRDDGGSKITNYVVERQATDSEVWHKLSSTVKDTNFK [R14750Q R14750Q], the mutation enrichment score came to 3.1.

A further assay deals with T10, VCL_Vinc__P18206_1_258.
T10 chain: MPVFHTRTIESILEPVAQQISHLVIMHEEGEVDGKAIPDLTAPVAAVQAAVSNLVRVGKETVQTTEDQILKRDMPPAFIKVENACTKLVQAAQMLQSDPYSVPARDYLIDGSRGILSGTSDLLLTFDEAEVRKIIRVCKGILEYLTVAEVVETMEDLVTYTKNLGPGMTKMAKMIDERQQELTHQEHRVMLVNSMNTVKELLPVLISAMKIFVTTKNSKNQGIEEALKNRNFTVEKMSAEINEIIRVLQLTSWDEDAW
The assay is described as above. As to conditions: number of wild-type / mutant comparisons summed (bounds the score): 6; paper call: no_effect; wild-type window: ….
Regarding AVPKYYQSPWEQAISNDPELSEALYPKLFKPEGKAELPDYR [L163S L163S], the mutation enrichment score is -3.

A further assay has as its target T9, PEX14_Pex14__O75381_16_84. The description is as above. As to conditions: number of wild-type / mutant comparisons summed (bounds the score): 12; paper call: no_effect; wild-type window: ….
For YRKHCLEQGKQQLMPQEAGLVEEFLLTDNSAIWQTVEELDY [A676V A676V], the mutation enrichment score amounted to 4.

Another assay addresses T11, EPHA3_Pkinase__P29320_606_947.
T11 chain: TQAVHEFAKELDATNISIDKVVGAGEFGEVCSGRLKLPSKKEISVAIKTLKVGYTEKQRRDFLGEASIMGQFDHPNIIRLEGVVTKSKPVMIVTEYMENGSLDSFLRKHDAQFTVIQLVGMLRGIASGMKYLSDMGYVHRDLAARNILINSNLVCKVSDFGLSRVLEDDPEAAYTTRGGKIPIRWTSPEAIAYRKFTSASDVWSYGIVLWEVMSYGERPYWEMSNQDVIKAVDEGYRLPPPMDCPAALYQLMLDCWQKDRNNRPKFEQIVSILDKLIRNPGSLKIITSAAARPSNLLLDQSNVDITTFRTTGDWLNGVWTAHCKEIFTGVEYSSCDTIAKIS
The assay is described as above. As to conditions: number of wild-type / mutant comparisons summed (bounds the score): 6; paper call: no_effect; wild-type window: ….
Regarding PEDDRPEAIPELHMVPAAWRVLEMPAPADDSSSSLGDVSPE [G2971V G2971V], the mutation enrichment score was 3.
PLQQQQVLSILHANPQLLAAVIKQRAAKYANSNPQPIPGQP [F2084V F2084V]: the mutation enrichment score was -3.

The target in a further assay is CREBBP_KIX__Q92793_587_673. Described as above. As to conditions: number of wild-type / mutant comparisons summed (bounds the score): 6; paper call: no_effect; wild-type window: ….
Turning to TSLLNASSDKFVADLWKDVDHIVGLDQMAKMTESSLPSASK [R624H R624H], the mutation enrichment score was 5.
The same measure, in the same setting: in the case of YEDALYTVLHRLGHPEPNHVMEASELLRYLQEAFHVEPEEH [T76M T76M] it was 5.9.

The assay is the same for the next values; noted with them: number of wild-type / mutant comparisons summed (bounds the score): 12; paper call: diminished; wild-type window: ….
For DNNNSDDCGNILPSDIMDFVQKNTPSMQALGESPESSSSEL [L2854Q L2854Q], the mutation enrichment score is -6.7.

The target of a further assay is T11, EPHA3_Pkinase__P29320_606_947. The description is as above. As to conditions: number of wild-type / mutant comparisons summed (bounds the score): 12; paper call: no_effect; wild-type window: ….
For YEDALYTVLHRLGHPEPNHVMEASELLRYLQEAFHVEPEEH [T76M T76M], the mutation enrichment score came to 2.

The next assay addresses MDM2_p53-binding-domain__Q00987_17_125. The description is as above. As to conditions: number of wild-type / mutant comparisons summed (bounds the score): 8; paper call: no_effect; wild-type window: ….
For the molecule YEDALYTVLHRLGHPEPNHVMEASELLRYLQEAFHVEPEEH [T76M T76M], the mutation enrichment score is -1.
